Source: PubChem BioAssay AID1347044 (National Center for Advancing Translational Sciences (NCATS), 2019)
Some of the results follow. Shown are side measurements of this screen, not its main read-out; they come without a call. The list favours compounds with an active or inconclusive main result. The note in brackets gives the kind of curve behind each potency; many fits are weak.

assay: Natriuretic polypeptide receptor (hNpr1) antagonism - Confirmation; details: HEK293 hNpr1 cGMP GloSensor luminescence, ANP-stimulated; measured here: HEK-hNpr1 cytotoxicity, CellTiter-Glo; further: nearly all actives have a fitted effect of over 70% in size
Method in brief: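 Compound (30 min, room temperature) preceded stimulation with hNppA peptide at 0.1 nM final for 20 min. Cells were HEK293 carrying hNpr1 plus GloSensor pGS-40F cGMP biosensor, pre-equilibrated 2 h with 2% substrate; cGMP was followed as luminescence pre- and post-agonist.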
Tags describe the fitted curve by direction and shape.

| SMILES | CC50 |
| --- | --- |
| CSc1ccc(CNC(=O)C2CCN(c3cc(C(F)(F)F)ncn3)CC2)cc1 | 19.3 µM [falling, partial curve] |
| Cc1cccc2c1nc1n2[C@@H](CNCc2ccc(S(C)(=O)=O)cc2)COC1 | 25 µM [falling, partial curve] |
| CC(C)(C)OC(=O)N1CC(NCc2ccc(-c3ccc(OC(F)(F)F)cc3)cc2)C1 | 17.2 µM [falling, partial curve] |
| COc1cccc(-c2noc(CC3CCN(C(=O)CCCc4ccccc4)CC3)n2)c1 | 24.3 µM [falling, partial curve] |
| O=C(c1cc2ccccc2[nH]1)N1CCC2(C1)NC(=O)N(Cc1ccc(F)cc1)C2=O (configuration not stated) | 34.3 µM [falling, single point] |
| O=C(N[C@H]1CO[C@H]2[C@@H]1OC[C@@H]2Nc1nccc(C2CCCC2)n1)c1ccccc1 | 35.3 µM [falling, partial curve] |
| O=C(NCc1ccccc1Cl)c1csc(N2CCN(c3ccc(F)cc3)CC2)n1 | 21.7 µM [falling, partial curve] |
| O=C(CCC1CCN(C(=O)c2cc(C3CC3)[nH]n2)CC1)N1CCC(Cc2ccccc2)CC1 | 21.7 µM [falling, partial curve] |
| Cc1nn(C)c(C)c1CCC(=O)N1CCC(Cc2noc(-c3ccc(F)cc3)n2)C1 (configuration not stated) | 24.3 µM [falling, partial curve] |
| Cc1nn(Cc2ccccc2)c(C)c1[C@@H]1C=C[C@@H](NS(=O)(=O)c2cccs2)C1 | 31.4 µM [falling, partial curve] |
| CCc1nccn1CC(=O)NC(C)c1cnn(-c2ccccc2C)c1C (configuration not stated) | 21.7 µM [falling, partial curve, poor fit] |
| O=C(NC1CCN(c2cc(-c3ccc(F)cc3)[nH]n2)CC1)c1ccc(F)c(Cl)c1 | 43.2 µM [falling, single point] |
| COCc1cc(N2CCC(c3cccc(OC)c3OC)C2)ncn1 (configuration not stated) | 3.43 µM [falling, full curve] |
| COc1ccc(-c2noc(CC3CCN(C(=O)c4ccc(OC)nc4OC)CC3)n2)cc1 | 6.85 µM [falling, full curve] |
| CC(C)c1cccc(NC(=O)C2CCN(C(=O)c3ncn4c3COC(c3ccc(F)cc3)C4)CC2)c1 (configuration not stated) | 43.2 µM [falling, single point] |
| Cc1ccc(Cl)cc1NC(=O)c1cnc(-c2ccccc2)nc1-c1ccncc1 | 38.5 µM [falling, single point] |
| O=C(N1CC(Oc2ccc(-c3nc(-c4ccccc4)no3)cc2)C1)C1(c2ccccc2)CC1 | 24.3 µM [falling, partial curve] |
